# Assay results from PubChem BioAssay AID1030 (National Center for Advancing Translational Sciences (NCATS), 2008).
# Among all 220,000 compounds or so, about 16,000 (7.3%) were called active. Inconclusive means that the source gave no clear call. Such entries were picked first, then a sample of the others. Calls follow the shape of the dose curve; as a rule, active = well fitted inhibition curve with a large enough effect (not every such curve was filed as active); inconclusive = small, poorly fitted or top-dose-only effect, or another doubt; inactive = no such curve, though single readings can be large or run the other way. No potency is given beside an inconclusive call; the fits are too rough.
# Molecular target: Aldehyde dehydrogenase 1A1 (Homo sapiens) (UniProt P00352)
# UniProt P00352, sequence (P00352 whole entry, looked up): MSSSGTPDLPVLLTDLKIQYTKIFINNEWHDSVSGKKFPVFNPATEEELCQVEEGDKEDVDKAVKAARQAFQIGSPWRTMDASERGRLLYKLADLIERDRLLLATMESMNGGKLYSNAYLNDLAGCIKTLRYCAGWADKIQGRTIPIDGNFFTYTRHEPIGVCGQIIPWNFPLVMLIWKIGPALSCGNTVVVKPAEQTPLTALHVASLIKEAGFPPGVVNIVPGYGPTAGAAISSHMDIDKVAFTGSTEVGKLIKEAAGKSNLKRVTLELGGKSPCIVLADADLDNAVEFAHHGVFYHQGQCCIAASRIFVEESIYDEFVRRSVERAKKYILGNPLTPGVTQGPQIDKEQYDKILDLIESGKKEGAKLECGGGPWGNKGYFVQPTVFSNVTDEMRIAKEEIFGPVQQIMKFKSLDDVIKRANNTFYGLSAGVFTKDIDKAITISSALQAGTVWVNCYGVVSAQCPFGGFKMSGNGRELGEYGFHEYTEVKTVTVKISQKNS
# Assay: qHTS Assay for Inhibitors of Aldehyde Dehydrogenase 1 (ALDH1A1)
# Details: Purified ALDH1A1, NADH fluorescence, propionaldehyde substrate; series mostly up to 75.3 µM
# Potency is read from the fitted curve at half-maximal effect; tags tell the direction and shape of the fitted curve.
row,Compound,Potency
1,CCc1ccc(CN2CCN(Cc3cc(Br)ccc3O)CC2)cc1,inactive
2,CCC12CN3CC(CC)(CN(C1)C3c1cccnc1)C2=O (stereo not drawn),"inconclusive [inhibitor, single point]"
3,COc1cc(C2C(C#N)=C(N)OC3=C2C(=O)CC(C)(C)C3)ccc1OC(=O)N1CCOCC1 (stereo not drawn),"inconclusive [inhibitor, single point]"
4,COC1(CS(=O)c2ccccc2)CCN(CCc2c[nH]c3ccc(F)cc23)CC1 (stereo not drawn),"inconclusive [inhibitor, single point]"
5,Cc1ccc(-n2c(C)cc(/C=C3\C(=O)NC(=O)N(C)C3=O)c2C)cc1C,active: 17.8 µM
6,Cc1cccc(-n2c(-c3ccc([N+](=O)[O-])cc3)nc3ccccc3c2=O)c1,"inconclusive [inhibitor, partial curve]"
7,CCN1C[C@]2(C)CC[C@H](OC)[C@@]34[C@H]1C1(OCO[C@@]15C[C@H](OC)C1C[C@]3(O)C5[C@H]1OC)[C@@H](O)[C@H]24,inactive
8,C=C(Cl)CSC(=S)N(CC)CC,"inconclusive [inhibitor, single point]"
9,COc1cc2c(cc1O)[C@H]1Cc3ccc(OC)c(O)c3CN1CC2,inactive
10,c1ccc(-c2[nH]c(-c3ccccc3)[n+](CC3CO3)c2-c2ccccc2)cc1 (stereo not drawn),"inconclusive [inhibitor, single point]"
11,CN1CC=C2C(C#N)=C(N)C(C#N)(C#N)C(c3ccncc3)C2C1 (stereo not drawn),"inconclusive [inhibitor, partial curve]"
12,C#CCN1C(=O)C2(C(C#N)=C(N)OC(C)=C2C(=O)OCc2ccccc2)c2ccccc21 (stereo not drawn),active: 0.794 µM
13,CC(c1ccc(F)cc1)n1cc(C(=O)NCc2ccc3c(c2)OCO3)nn1 (stereo not drawn),inactive
14,Nc1cncc(C(=O)O)c1,"inconclusive [inhibitor, single point]"
15,O=C(c1cccn2c(=O)c3cc(Cl)ccc3nc12)N1CCC2(CC1)OCCO2,"inconclusive [inhibitor, partial curve]"
16,ClC1=C(Cl)C2(Cl)C3C4CC(C5OC45)C3C1(Cl)C2(Cl)Cl (stereo not drawn),inactive
17,O=C1C2CCCN2C(c2ccc(Cl)c(Cl)c2)N1c1ccccn1 (stereo not drawn),"inconclusive [inhibitor, single point]"
18,COc1ccc(C2N(c3cc(C)on3)C(=O)C3CCCN32)cc1 (stereo not drawn),"inconclusive [inhibitor, single point]"
19,O=c1c2ccccc2nc(Cc2ccccc2)n1-c1ccc(O)cc1,"inconclusive [inhibitor, single point]"
20,CC(=O)c1cccc(OCC(O)CN2CC=C(c3ccccc3)CC2)c1 (stereo not drawn),active: 22.4 µM
21,c1ccc2c(c1)[nH]c1ccccc12,"inconclusive [inhibitor, single point]"
22,CN1CCc2cc3c(cc2[C@@H]1O)OCO3,"inconclusive [inhibitor, partial curve]"

row,Compound,Potency
1,CC1CC2(O)c3nonc3CCC2N1O (stereo not drawn),"inconclusive [inhibitor, single point]"
2,COc1ccc(C)cc1N,"inconclusive [inhibitor, single point]"
3,Cc1cc(C)c(C(=O)CN2CCOCC2)c(C)c1,active: 10 µM
4,Cc1nc2ccccn2c1P(=S)(N1CCCCC1)N1CCCCC1,"inconclusive [inhibitor, single point]"
5,CN(C(=O)Oc1ccc([N+](=O)[O-])cc1)c1ccccc1,"inconclusive [inhibitor, single point]"
6,CCOc1ccc2[nH]c(=O)c(CN(CCO)C3(c4nnnn4C4CCCCC4)CCCCC3)cc2c1,"inconclusive [inhibitor, single point]"
7,CNC(=O)Oc1cccc2ccccc12,"inconclusive [inhibitor, partial curve]"
8,Cc1noc(C)c1C(=O)N1CCC2(CCCN(CC(C)C)C2)CC1,inactive
9,COc1ccccc1CC1/C(=N/O)C2CCN1CC2 (stereo not drawn),"inconclusive [inhibitor, single point]"
10,O=C1NC(=O)C(C(CC(=O)c2ccccc2)c2ccccc2)C(=O)N1 (stereo not drawn),active: 0.1 µM
11,COC(=O)C(C)Oc1cc(C)cc2oc(=O)c3c(c12)CCC3 (stereo not drawn),"inconclusive [inhibitor, partial curve]"
12,CC1CC[C@@]2(OC1)O[C@@H]1[C@@H](O)[C@H]3C4CC[C@H]5C[C@@H](O[C@@H]6O[C@H](CO)[C@H](O[C@@H]7O[C@H](CO)[C@@H](O)[C@H](O[C@@H]8OC[C@@H](O)[C@H](O)[C@H]8O)[C@H]7O[C@@H]7O[C@H](CO)[C@@H](O)[C@H](O[C@@H]8O[C@H](CO)[C@@H](O)[C@H](O)[C@H]8O)[C@H]7O)[C@H](O)[C@H]6O)[C@H](O)C[C@]5(C)C4CC[C@]3(C)[C@H]1[C@@H]2C (stereo partly drawn),inactive
13,Cc1cc(-c2cc(C)c(N)c(C)c2)cc(C)c1N,"inconclusive [inhibitor, partial curve]"
14,CCOc1ccccc1N=C1SCCCN1C,inactive
15,O=C(COC(=O)Cc1ccccc1)Nc1ncc(Cl)cc1Cl,inactive
16,C[C@@]12CC[C@H]3[C@@H](CCC4=CC(=O)CC[C@]43C)[C@H]1CC[C@H]2C(=O)CO,active: 5.01 µM
17,C=CCN1CC[C@]23c4c5ccc(O)c4O[C@@H]2/C(=N/N=C2\CC[C@@]4(O)C6Cc7ccc(O)c8c7[C@@]4(CCN6CC=C)[C@@H]2O8)CC[C@@]3(O)C1C5,inactive
18,Cc1ccccc1-c1cncnc1NCCc1cnc[nH]1,inactive
19,CC(=NCCCN1CCOCC1)c1c(O)n(Cc2ccccc2)c(=O)[nH]c1=O,"inconclusive [inhibitor, single point]"
20,NS(=O)(=O)C[C-]1C=C[CH]([Sb-]([Cl])([Cl])([Cl])([Cl])[Cl])C=C1.c1ccncc1 (stereo not drawn),active: 3.55 µM
21,O=c1[nH]c(=O)n(-c2ccccc2)c(O)c1/C=C1/C(c2ccccc2)=Nc2ccccc21,"inconclusive [inhibitor, single point]"
